# According to a collection of fitness landscapes (doi:10.1016/j.celrep.2020.107928):
# Whole data set: some 81,000 sequences, median “one-hybrid fitness for binding NBS DNA” near -0.1, cut for the highest 2% near 0.36. This is one part of the list.
# B1: Caulobacter ParB omega fusion; a variant is named by its letters at X, in order, B8GW30 (parent)
# chain: MESVVVGEPGMSEGRRGLGRGLSALLGEVDAAPAQAPGEQLGGSREAPIEILQRNPDQPRRTFREEDLEDLSNSIREKGVLQPILVRPSPDTAGEYQIVAGERAWRAAQRAGLKTVPIMVRELDDLAVLEIGIIENVQRADLNVLEEALSYKVLMEKFERTQENIAQTIGKSXSHVANXMRLLXLPDEVQSYLVSGELTAXHARAIAAAADPVALAKQIIEGGLSVRETEALARKAPNLSAGKSKGGRPPRVKDTDTQALESDLSSVLGLDVSIDHRGSTGTLTITYATLEQLDDLCNRLTRGI
# Variants of: B1
# Assay: one-hybrid fitness for binding NBS DNA (the Noc-binding site; scaled: cognate 1, non-cognate 0); higher = stronger binding
# Conditions: with NBS DNA site
# Summary of the method: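 Pre- and post-selection plasmids were Illumina-sequenced, three replicate libraries were pooled, and any variant with under 10 reads was removed. The libraries were Caulobacter ParB with four specificity codons randomised, selected in E. coli USO through a HIS3 reporter whose site is 19 bp from the promoter. Cells grew 48 hours at 37°C on M9 without histidine, with 0.1 mM IPTG and 5 mM 3-AT. Fitness is the log change in variant-to-wild-type read ratio, rescaled against cognate and non-cognate.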
row,Variant,one-hybrid fitness for binding NBS DNA
1,EPSD,≤ 0.2
2,IVLV,≤ 0.2
3,AQQR,≤ 0.2
4,LEAG,≤ 0.2
5,CKSI,≤ 0.2
6,NHYC,≤ 0.2
7,GNPT,≤ 0.2
8,MTWS,≤ 0.2
9,MMSN,≤ 0.2
10,NVPT,≤ 0.2
11,SAAI,≤ 0.2
12,EAHV,≤ 0.2
13,HPAF,≤ 0.2
14,TPQV,≤ 0.2
15,CMKS,≤ 0.2
16,IVSA,≤ 0.2
17,RQHA,≤ 0.2
18,DQSY,≤ 0.2
19,SRQL,≤ 0.2
20,PAPY,≤ 0.2
21,SNTI,≤ 0.2
22,KANR,≤ 0.2
23,AAWN,≤ 0.2
24,NNPT,≤ 0.2
25,NTSV,≤ 0.2
26,DSSI,≤ 0.2

row,Variant,one-hybrid fitness for binding NBS DNA
1,PADF,≤ 0.2
2,CMQL,≤ 0.2
3,RHDR,0.216
4,LLFP,≤ 0.2
5,QILM,≤ 0.2
6,AEPC,≤ 0.2
7,GRKH,≤ 0.2
8,GAEI,≤ 0.2
9,REKE,≤ 0.2
10,MNMD,≤ 0.2
11,KATD,≤ 0.2
12,YHVS,≤ 0.2
13,QYHQ,≤ 0.2
14,AMGK,≤ 0.2
15,RQPH,≤ 0.2
16,KISI,≤ 0.2
17,FRDS,≤ 0.2
18,RQIA,≤ 0.2
19,KVTC,≤ 0.2
20,PANA,≤ 0.2
21,FPDF,≤ 0.2
22,QVVN,≤ 0.2
23,FNER,≤ 0.2
24,RGWT,≤ 0.2
25,SQTS,≤ 0.2
26,VRNR,0.368

row,Variant,one-hybrid fitness for binding NBS DNA
1,TPPG,≤ 0.2
2,HMQF,≤ 0.2
3,EGST,≤ 0.2
4,RCAM,≤ 0.2
5,QIPF,≤ 0.2
6,LKPL,≤ 0.2
7,MLIG,≤ 0.2
8,QQAV,≤ 0.2
9,NKNC,≤ 0.2
10,CCTT,≤ 0.2
11,LFLW,≤ 0.2
12,SNCM,≤ 0.2
13,SNAV,≤ 0.2
14,REVI,≤ 0.2
15,PKGG,≤ 0.2
16,LMTW,≤ 0.2
17,KHKI,≤ 0.2
18,HYNR,≤ 0.2
19,EDPL,≤ 0.2
20,TTAT,≤ 0.2
21,MSDS,≤ 0.2
22,PQRW,≤ 0.2
23,TEMR,≤ 0.2
24,VYHT,≤ 0.2
25,WPGS,≤ 0.2
26,QKGA,0.265

row,Variant,one-hybrid fitness for binding NBS DNA
1,PSKW,≤ 0.2
2,FPPS,≤ 0.2
3,PSCW,≤ 0.2
4,GWRW,≤ 0.2
5,GHDF,≤ 0.2
6,PWLS,≤ 0.2
7,GVND,≤ 0.2
8,EVFS,≤ 0.2
9,REKA,≤ 0.2
10,SLSQ,≤ 0.2
11,PPVK,≤ 0.2
12,TPNV,≤ 0.2
13,QVQW,≤ 0.2
14,KRRE,≤ 0.2
15,ICQR,≤ 0.2
16,RHSE,≤ 0.2
17,PLWE,≤ 0.2
18,NANN,≤ 0.2
19,LQCS,≤ 0.2
20,NVIV,≤ 0.2
21,WAYR,≤ 0.2
22,HDGS,≤ 0.2
23,STYL,≤ 0.2
24,PWPS,≤ 0.2
25,NMKQ,≤ 0.2
26,RSTG,≤ 0.2

row,Variant,one-hybrid fitness for binding NBS DNA
1,VIPR,≤ 0.2
2,QDRC,≤ 0.2
3,QKHF,≤ 0.2
4,EANI,≤ 0.2
5,AYNS,≤ 0.2
6,FTCL,≤ 0.2
7,CNSI,≤ 0.2
8,TPRK,≤ 0.2
9,TTQA,≤ 0.2
10,CMEG,≤ 0.2
11,AQSQ,≤ 0.2
12,TEPP,≤ 0.2
13,PQIL,≤ 0.2
14,KCKE,≤ 0.2
15,TDTD,≤ 0.2
16,PRRM,≤ 0.2
17,CRWR,≤ 0.2
18,FQGG,≤ 0.2
19,QSPE,≤ 0.2
20,STQF,≤ 0.2
21,PMIW,≤ 0.2
22,QHEV,≤ 0.2
23,QREI,≤ 0.2
24,QAKL,0.229
25,HKHT,≤ 0.2
26,TIQY,≤ 0.2

row,Variant,one-hybrid fitness for binding NBS DNA
1,QEYT,≤ 0.2
2,FCHY,≤ 0.2
3,FIGS,≤ 0.2
4,KTKV,≤ 0.2
5,PTST,≤ 0.2
6,YQLI,≤ 0.2
7,RYKC,0.367
8,RTIR,0.354
9,GYQR,≤ 0.2
10,SMVD,≤ 0.2
11,ETPT,≤ 0.2
12,FGGR,≤ 0.2
13,GEPV,≤ 0.2
14,DEDW,≤ 0.2
15,CWNS,≤ 0.2
16,WLPY,≤ 0.2
17,FHDT,≤ 0.2
18,KKCR,≤ 0.2
19,QGKE,≤ 0.2
20,SLHY,≤ 0.2
21,GCKR,≤ 0.2
22,GLTE,≤ 0.2
23,QMAM,≤ 0.2
